# Data as given in the supplement of paper PMC4604168 (melanoma cell lines).
# This is one part of the list. Single values are uncertain, as repeats are few or missing.
# Tests used:
# Assay in all cases: cell count relative to DMSO control; melanoma cells; higher = more viable cells
# Conditions in all cases: library dose: low library concentration; 72 h
# [1] = tested on: WM115
# [2] = tested on: WM1716
# [3] = tested on: WM1745
# [4] = tested on: WM3526
# [5] = tested on: WM3619
# [6] = tested on: WM451Lu
# 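Further: cell number obtained by counting DAPI-stained nuclei in high-throughput microscope images with image analysis software, screen run in 1,536-well plates.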
Structure (SMILES),cell count [1] [%],cell count [2] [%],cell count [3] [%],cell count [4] [%],cell count [5] [%],cell count [6] [%]
"O=c1[nH]nc(Sc2ncc([N+](=O)[O-])s2)n1-c1ccc2c(c1)OCCO2 + Cc1ccc(Nc2nccc(N(C)c3ccc4c(C)n(C)nc4c3)n2)cc1S(N)(=O)=O [Pazopanib] (first compound 0.2 µM, partner dose 0.4 µM)",98.8,83.2,95.3,97.7,84.7,93.1
"COc1cc(Nc2ncc(F)c(Nc3ccc4c(n3)NC(=O)C(C)(C)O4)n2)cc(OC)c1OC [Tamatinib] + Cn1cncc1[C@@](N)(c1ccc(Cl)cc1)c1ccc2c(c1)c(-c1cccc(Cl)c1)cc(=O)n2C [tipifarnib] (first compound 0.4 µM, partner dose 0.01 µM)",61.1,66.1,67.5,69.5,53.2,92.7
"C[C@@H]1CCN(C(=O)CC#N)C[C@@H]1N(C)c1ncnc2[nH]ccc12 + Cc1cc([N+](=O)[O-])ccc1NS(=O)(=O)c1cc(Cl)ccc1Cl [FH535] (first compound 1 µM, partner dose 1 µM)",95,98.9,106,107,101,109
"O=c1[nH]nc(Sc2ncc([N+](=O)[O-])s2)n1-c1ccc2c(c1)OCCO2 + OCc1c[nH]c2ccccc12 [Indole-3-carbinol] (first compound 0.2 µM, partner dose 0.8 µM)",88.7,105,92.4,96.6,112,85.9
"CC1(C)NC(=O)N(c2ccc([N+](=O)[O-])c(C(F)(F)F)c2)C1=O [nilutamide] + O=C(Nc1ccccc1)c1cc([N+](=O)[O-])ccc1Cl [GW9662] (first compound 1 µM, partner dose 2 µM)",102,94.9,81.3,118,94,112
"O=c1[nH]nc(Sc2ncc([N+](=O)[O-])s2)n1-c1ccc2c(c1)OCCO2 + CCc1ccc(CCOc2ccc(CC3SC(=O)NC3=O)cc2)nc1 [pioglitazone] (first compound 0.2 µM, partner dose 2 µM)",99.3,92.5,83.8,91.6,106,102
"O=c1[nH]nc(Sc2ncc([N+](=O)[O-])s2)n1-c1ccc2c(c1)OCCO2 + CC(C)(C)c1cnc(CSc2cnc(NC(=O)C3CCNCC3)s2)o1 [SNS-032] (first compound 0.2 µM, partner dose 0.01 µM)",96.8,82.3,82,88.4,119,109
"COc1cc(Nc2ncc(F)c(Nc3ccc4c(n3)NC(=O)C(C)(C)O4)n2)cc(OC)c1OC [Tamatinib] + c1cc(-c2cnn3cc(-c4ccc(OCCN5CCCCC5)cc4)cnc23)ccn1 [Dorsomorphin] (first compound 0.4 µM, partner dose 0.4 µM)",88.7,85.3,50.1,92.2,97.9,98.7
"CC1(C)NC(=O)N(c2ccc([N+](=O)[O-])c(C(F)(F)F)c2)C1=O [nilutamide] + O=c1cc(-c2cccc3c2Sc2ccccc2S3)oc(N2CCOCC2)c1 [KU55933] (first compound 1 µM, partner dose 1 µM)",107,97.4,101,119,88.9,128
"O=C(O)c1ccc(-c2c[nH]c3ncc(-c4ccccc4)cc23)cc1C1CCCC1 + Oc1cc(-c2nc(-c3ccccc3)[nH]c2-c2ccncc2)ccc1Cl [L779450] (first compound 0.16 µM, partner dose 0.2 µM)",75.5,107,91.5,63.5,107,103
"O=c1[nH]nc(Sc2ncc([N+](=O)[O-])s2)n1-c1ccc2c(c1)OCCO2 + CO[C@H]1C[C@@H]2CC[C@@H](C)[C@@](O)(O2)C(=O)C(=O)N2CCCC[C@H]2C(=O)O[C@H]([C@H](C)C[C@@H]2CC[C@@H](OCCO)[C@H](OC)C2)CC(=O)[C@H](C)/C=C(\C)[C@@H](O)[C@@H](OC)C(=O)[C@H](C)C[C@H](C)/C=C/C=C/C=C/1C [everolimus] (first compound 0.2 µM, partner dose 0.02 µM)",69.3,68.8,85.4,66.8,61.8,82.3
"O=C(O)c1ccc(-c2c[nH]c3ncc(-c4ccccc4)cc23)cc1C1CCCC1 + CN(NC(=O)CC(=O)NN(C)C(=S)c1ccccc1)C(=S)c1ccccc1 [STA4783] (first compound 0.16 µM, partner dose 0.006 µM)",64.5,81.6,45.6,81.5,46.7,86.9
"O=C(O)c1ccc(-c2c[nH]c3ncc(-c4ccccc4)cc23)cc1C1CCCC1 + COc1ccc(-c2ccc3c(N4CCOCC4)nc(N4C[C@@H](C)O[C@@H](C)C4)nc3n2)cc1CO [KU0063794] (first compound 0.16 µM, partner dose 0.02 µM)",89.6,115,96.7,91.6,100,89
"C[C@@H]1CCN(C(=O)CC#N)C[C@@H]1N(C)c1ncnc2[nH]ccc12 + CN(C)S(=O)(=O)c1ccc2c(c1)/C(=C/c1cc3c([nH]1)CCCC3)C(=O)N2 [SU6656] (first compound 1 µM, partner dose 0.4 µM)",75.1,105,86.2,82.2,117,86.7
"CC1(C)NC(=O)N(c2ccc([N+](=O)[O-])c(C(F)(F)F)c2)C1=O [nilutamide] + Cn1cncc1[C@@](N)(c1ccc(Cl)cc1)c1ccc2c(c1)c(-c1cccc(Cl)c1)cc(=O)n2C [tipifarnib] (first compound 1 µM, partner dose 0.01 µM)",90.7,79.2,81.8,51.5,84,72.8
"CC1(C)NC(=O)N(c2ccc([N+](=O)[O-])c(C(F)(F)F)c2)C1=O [nilutamide] + COc1ccc2c(c1)CCC1C2CCC2(C)C(NCCCCCCN3C(=O)C=CC3=O)CCC12 [U73122] (first compound 1 µM, partner dose 0.4 µM)",106,91.8,92.2,90.8,94,101
"O=C(O)c1ccc(-c2c[nH]c3ncc(-c4ccccc4)cc23)cc1C1CCCC1 + N#Cc1c(O)c2c(-c3ccc(-c4ccccc4O)cc3)csc2[nH]c1=O [A769662] (first compound 0.16 µM, partner dose 2 µM)",88,105,101,90.8,106,61.1
"O=C(O)c1ccc(-c2c[nH]c3ncc(-c4ccccc4)cc23)cc1C1CCCC1 + Cn1cc(/C=C2\C(=O)Nc3cccnc32)c2ccccc21 [GW441756] (first compound 0.16 µM, partner dose 0.4 µM)",95,93.7,102,96.9,111,102
"Cn1cncc1[C@@](N)(c1ccc(Cl)cc1)c1ccc2c(c1)c(-c1cccc(Cl)c1)cc(=O)n2C [tipifarnib] + Oc1nc(-c2ccc(C(F)(F)F)cc2)nc2c1CSCC2 [XAV939] (first compound 0.01 µM, partner dose 2 µM)",100,62.3,80,77.3,79.8,108
"O=c1[nH]nc(Sc2ncc([N+](=O)[O-])s2)n1-c1ccc2c(c1)OCCO2 + CNC(=O)c1cc(Oc2ccc(NC(=O)Nc3ccc(Cl)c(C(F)(F)F)c3)cc2)ccn1 [sorafenib] (first compound 0.2 µM, partner dose 0.4 µM)",98.1,85.6,102,86.4,102,101
"O=c1[nH]nc(Sc2ncc([N+](=O)[O-])s2)n1-c1ccc2c(c1)OCCO2 + CN(C)S(=O)(=O)c1ccc2c(c1)/C(=C/c1cc3c([nH]1)CCCC3)C(=O)N2 [SU6656] (first compound 0.2 µM, partner dose 0.4 µM)",78.1,113,92.7,86.6,92,86.3
"Cn1cncc1[C@@](N)(c1ccc(Cl)cc1)c1ccc2c(c1)c(-c1cccc(Cl)c1)cc(=O)n2C [tipifarnib] + O=S(=O)(c1ccccc1)N(CC(F)(F)F)c1ccc(C(O)(C(F)(F)F)C(F)(F)F)cc1 [T0901317] (first compound 0.01 µM, partner dose 1.4 µM)",93.8,82.6,75.9,100,116,105
"O=C(O)c1ccc(-c2c[nH]c3ncc(-c4ccccc4)cc23)cc1C1CCCC1 + O=C(O)C(=O)Nc1sc2c(c1C(=O)O)CCNC2 [TCS401] (first compound 0.16 µM, partner dose 1.66667 µM)",98.2,84.4,93.6,94.9,91.5,147
"COc1cc(Nc2ncc(F)c(Nc3ccc4c(n3)NC(=O)C(C)(C)O4)n2)cc(OC)c1OC [Tamatinib] + COc1ccc2c(c1)CCC1C2CCC2(C)C(NCCCCCCN3C(=O)C=CC3=O)CCC12 [U73122] (first compound 0.4 µM, partner dose 0.4 µM)",90.6,81.2,66,88.3,110,101
"O=C(O)c1ccc(-c2c[nH]c3ncc(-c4ccccc4)cc23)cc1C1CCCC1 + CCN(CC)CCCCNc1ncc2cc(-c3cc(OC)cc(OC)c3)c(NC(=O)NC(C)(C)C)nc2n1 [PD173074] (first compound 0.16 µM, partner dose 0.1 µM)",95.3,99.2,95.7,86.6,103,95.6
